Reference: the supplement of paper PMC9446081
About 220 (0.56%) of roughly 39,000 compounds showed activity. This is one part of the list.

Each molecule was assayed on Escherichia coli K-12 BW25113 (assay: relative growth (OD600 normalised to plate interquartile mean) (fraction); higher = less growth inhibition, active = 0.2 or less). Details: 50 µM; LB; incubation time: overnight (16-24 h).
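Note: static incubation at 37 °C against the wild-type strain, values averaged over two biological replicates.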

SMILES	relative growth
C[C@@H]1CCCCO[C@H](CN(C)C(=O)Nc2cccc3ccccc23)[C@H](C)CN([C@H](C)CO)C(=O)c2cc(N(C)C)ccc2O1	inactive: 1.02
COCCCNC(=O)[C@@H]1c2ccccc2C(=O)N(Cc2cc(C(F)(F)F)cc(C(F)(F)F)c2)[C@H]1c1ccc(CO)cc1	inactive: 0.859
CS(=O)(=O)N1[C@@H]2Cn3c(ccc(-c4ccc(F)cc4)c3=O)[C@H]1[C@@H](C(=O)N1CCOCC1)[C@@H]2CO	inactive: 0.99
CO[C@@H]1CN(C)C(=O)c2cc(NS(C)(=O)=O)ccc2OC[C@@H](C)N(C(=O)C2CCCCC2)C[C@H]1C	inactive: 1
C[C@@H]1CN([C@H](C)CO)C(=O)c2cc(NC(=O)C3CC3)ccc2O[C@H]1CN(C)S(=O)(=O)c1ccc(Cl)cc1	inactive: 0.991
C[C@@H]1CN([C@@H](C)CO)C(=O)c2cc(NC(=O)Nc3ccc(F)cc3)ccc2O[C@H]1CN(C)C(=O)Nc1cccc2ccccc12	inactive: 1.01
Cc1ccc(S(=O)(=O)Nc2ccc3c(c2)C(=O)N([C@H](C)CO)C[C@H](C)[C@@H](CN(C)Cc2ccc(C(F)(F)F)cc2)OCCCC[C@H](C)O3)cc1	inactive: 1.05
C[C@H](CO)N1C[C@H](C)[C@@H](CN(C)S(=O)(=O)c2cn(C)cn2)Oc2cc(C#Cc3ccccc3)ccc2S1(=O)=O	inactive: 0.994
CC(C)(C)[S@](=O)N1Cc2cc(C(=O)NCCN3CCCCC3)nc(-c3cccc(-c4cccc(C#N)c4)c3)c2[C@@H]1CCO	inactive: 0.986
C[C@@H]1CCCCO[C@H](CN(C)Cc2ccc3c(c2)OCO3)[C@@H](C)CN([C@@H](C)CO)C(=O)c2cc(NC(=O)c3ccccc3)ccc2O1	inactive: 1.03
C[C@@H]1CCCCO[C@@H](CN(C)S(=O)(=O)c2cn(C)cn2)[C@@H](C)CN([C@H](C)CO)C(=O)c2cc(NC(=O)CCCN(C)C)ccc2O1	inactive: 1.01
C[C@H](CO)N1C[C@H](C)[C@@H](CN(C)S(=O)(=O)c2ccc(F)cc2)Oc2ccc(NC(=O)Nc3cccc4ccccc34)cc2CC1=O	inactive: 1.01
C[C@@H]1CN([C@@H](C)CO)C(=O)CCCn2cc(nn2)CO[C@H]1CN(C)S(=O)(=O)c1ccc(C#N)cc1	inactive: 1.01
C[C@@H]1CCCCO[C@@H](CN(C)C(=O)Nc2ccccc2)[C@@H](C)CN([C@H](C)CO)C(=O)c2cc(NC(=O)CCCCCC(=O)Nc3ccccc3N)ccc2O1	inactive: 1.01
C/C=C1\NC(=O)[C@H]2CSSCC/C=C/[C@H](CC(=O)N[C@H](C(C)C)C(=O)N2)OC(=O)[C@H](C(C)C)NC1=O	inactive: 1.05
COCC#Cc1ccc2c(c1)O[C@H](CN(C)C(=O)Nc1ccccc1F)[C@@H](C)CN([C@H](C)CO)S2(=O)=O	inactive: 0.966
COc1ccc(S(=O)(=O)N(C)C[C@H]2Oc3ccc(NS(C)(=O)=O)cc3CC(=O)N([C@H](C)CO)C[C@H]2C)cc1	inactive: 0.971
CC(C)NC(=O)N(C)C[C@@H]1OCCCC[C@H](C)Oc2ccc(NS(C)(=O)=O)cc2C(=O)N([C@H](C)CO)C[C@@H]1C	inactive: 0.902

SMILES	relative growth
Cc1ccc(S(=O)(=O)N(C)C[C@@H]2OCCCC[C@H](C)Oc3ccc(NC(=O)Nc4cccc5ccccc45)cc3C(=O)N([C@H](C)CO)C[C@@H]2C)cc1	inactive: 0.968
C[C@H](CO)N1C[C@H](C)[C@H](CN(C)S(=O)(=O)c2ccccc2F)Oc2ncc(C#Cc3cccnc3)cc2C1=O	inactive: 0.974
C[C@@H]1CCCCO[C@H](CN(C)S(=O)(=O)c2ccccc2)[C@H](C)CN([C@H](C)CO)C(=O)c2cc(NC(=O)Nc3ccccc3)ccc2O1	inactive: 1.02
NS(=O)(=O)c1ccc(Cl)c2nonc12	inactive: 1
CNC(=O)C[C@H]1CC[C@H]2[C@@H](COC[C@@H](O)CN2C(=O)Nc2ccc3c(c2)OCO3)O1	inactive: 0.981
COc1ccc(S(=O)(=O)Nc2ccc3c(c2)CC(=O)N([C@H](C)CO)C[C@H](C)[C@H](CN(C)S(=O)(=O)c2ccc(F)cc2)O3)cc1	inactive: 0.932
C[C@@H]1CCCCO[C@H](CN(C)C(=O)Cc2ccccc2)[C@H](C)CN([C@@H](C)CO)C(=O)c2cc(NS(=O)(=O)c3ccc(F)cc3)ccc2O1	inactive: 1
CCCNC(=O)N(C)C[C@@H]1Oc2ncc(-c3ccc(C(=O)N(C)C)cc3)cc2C(=O)N([C@H](C)CO)C[C@H]1C	inactive: 1.01
C[C@@H]1CCCCO[C@H](CN(C)S(=O)(=O)c2ccc(F)cc2)[C@H](C)CN([C@H](C)CO)C(=O)c2cc(NS(=O)(=O)c3ccc(Cl)cc3)ccc2O1	inactive: 1.01
Cc1ccc(S(=O)(=O)N(C)C[C@H]2Oc3ccc(NC(=O)C4CC4)cc3C(=O)N([C@@H](C)CO)C[C@H]2C)cc1	inactive: 1.01
C[C@@H]1CN([C@@H](C)CO)C(=O)c2cc(NS(=O)(=O)c3ccc(F)cc3)ccc2O[C@H]1CN(C)C(=O)Nc1cccc2ccccc12	inactive: 1.01
C=CCC[C@@H](Cc1ccc(F)cc1)C(=O)OC[C@H](Cc1c[nH]c2ccccc12)NC(=O)[C@@H](CC=C)CC(=O)N(CCO)Cc1ccccc1	inactive: 1.06
NCC[C@@H]1CC[C@H](NC(=O)C2CC2)[C@@H](CO)O1	inactive: 1.01
C[C@@H]1CN([C@@H](C)CO)C(=O)c2cc(NC(=O)Cc3cn(C)c4ccccc34)ccc2O[C@@H]1CN(C)Cc1ccc(Cl)c(Cl)c1	inactive: 0.996
C[C@@H]1CN([C@H](C)CO)C(=O)c2cccc(NC(=O)c3ccncc3)c2O[C@@H]1CN(C)S(=O)(=O)c1ccc(F)cc1	inactive: 1
C[C@@H]1CCCCO[C@@H](CN(C)Cc2ccc(Cl)c(Cl)c2)[C@@H](C)CN([C@H](C)CO)C(=O)c2cc(N(C)C)ccc2O1	inactive: 1.02
COc1ccccc1NC(=O)N(C)C[C@H]1Oc2ncc(C#CCN(C)C)cc2C(=O)N([C@H](C)CO)C[C@@H]1C	inactive: 0.977
COc1ccc([Si](C)(C)[C@H]2[C@H](CC(=O)N(CCO)Cc3ccccc3)O[C@@]3(C(=O)N(Cc4ccc(N5CCC5=O)cc4)c4ccccc43)[C@@H]2C)cc1	inactive: 0.869
